Measurements taken from the RNAGym collection of RNA variant scans (doi:10.7554/elife.90254).
The source gives no read counts; variants with many changes may rest on few reads.

B1: LINE1-mini (parent)
chain: GGCAGAGCUCAACACAGCGUGGCAAAGUGGCUGUGGCUAGACUGCC

Variants of: B1
Assay: self-cleavage, relative activity (ratio to wild type); higher = more cleavage; in vitro, sequencing; the parent is a self-cleaving ribozyme

Row | Variant | self-cleavage
1 | A11U C37G C42A | 0.01
2 | A11U G40A C42A | 0.02
3 | A11U A14G G29A U34C | 0.05
4 | A12C A16U C46A | 0.03
5 | A12C A16U G30U | 0.02
6 | A11U C23A G27C | 0.06
7 | A11U C18A U20C C31A | 0.03
8 | A11U C13U U28A U32A G36C | 0
9 | A11U G27A C37U A41U | 0
10 | A12C C13U G21U | 0.03
11 | A11U C13A G44C | 0.02
12 | A12C A16C G27C C37U A41C | 0
13 | A11U A14G C18A C23G G33C | 0.02
14 | A11U C18A A24G A41C | 0.03
15 | A11U G35A G36C U38C | 0.03
16 | A11U A25G G27U C42G | 0.01
17 | A11U C18A G40A | 0.01
18 | A11U A25G G44C | 0.05
19 | A11U G21A G30U | 0.37
20 | A12C C15U G29U | 0.03
21 | A11U A39C C42U | 0.01
22 | A12C A16U G19C C23A C42G | 0
23 | A12C C15G G33A C42G | 0.01
24 | A12C A25U A26C G27A G35A | 0.11

Row | Variant | self-cleavage
25 | A11U A16U C18U G19U G33C G36A A41U | 0.01
26 | A11U C15U G44U | 0.03
27 | A11U G36A C37A | 0.05
28 | A12C G19A C23G U28G C31A C46U | 0
29 | A12C G17C G19C G36U | 0.05
30 | A11U G35U C42U | 0.04
31 | A11U A25U G27A U34A | 0.01
32 | A12C C13A G40A G44C | 0.04
33 | A11U G22A A26G C37G C45G | 0.01
34 | A11U C13U C37U | 0.01
35 | A11U C15A G30C C46A | 0.02
36 | A11U G36C U38A | 0.03
37 | A12C G19A C46A | 0.01
38 | A11U G27U G29U | 0.09
39 | A11U U20A G40U C45A | 0
40 | A11U A25U G40U | 0
41 | A12C C13A G29C G36C C37G | 0.02
42 | A11U C13A G22C A24U C42G C46U | 0
43 | A11U C15U C23A C37U | 0.01
44 | A11U U34C G40U | 0.03
45 | A11U U20G C37G G44A C45G | 0.03
46 | A11U C13A G17U G40U C45A | 0.04
47 | A12C C37U U38A | 0.01
48 | A11U A16G G21U G27A G35U C46A | 0.01

Row | Variant | self-cleavage
49 | A11U C18U G36U | 0.02
50 | A11U U34A U38A C45G | 0
51 | A11U A12U G29C | 0.03
52 | A11U U20C U32C | 0.03
53 | A11U U20G A25C A26G | 0.01
54 | A12C A24G U28G C42U | 0
55 | A12C A25G U32C | 0.03
56 | A12C A14U U28A C42A | 0.01
57 | A11U A14G U20C C37U | 0.01
58 | A12C C18U G29U G44U | 0.01
59 | A11U G21A G35U | 0.01
60 | A12C G19A G30U C37U | 0.01
61 | A12C A14G G27A G30C U38C A39U G44U | 0
62 | A11U G21U G40C | 0.01
63 | A12C A24U C31A | 0.01
64 | A12C A24U C31U | 0.02
65 | A11U A16U U32A | 0.25
66 | A11U A26C A39C | 0
67 | A11U U28C C46G | 0.28
68 | A11U U28C C46U | 0.07
69 | A11U A26G G35U | 0
70 | A11U G21U G27C | 0.06
71 | A11U G17C G35C | 0.02
72 | A12C A14C A16C G35A | 0.04

Row | Variant | self-cleavage
73 | A11U G21A G33C | 0
74 | A12C A16C C18U C31G | 0.01
75 | A12C A14U C23A U38G | 0.01
76 | A11U U20G A26U | 0.11
77 | A11U G19U G21U | 0.07
78 | A11U G17U A24U A41G | 0.02
79 | A12C A16G G22U U38A A41G | 0.03
80 | A12C G19A C23G A39G | 0.01
81 | A11U C23G A24C | 0.02
82 | A11U G22U A39G | 0.09
83 | A11U C13G G29C U34A | 0.01
84 | A11U C13G G36A | 0.01
85 | A11U C15A G40A C42G | 0.02
86 | A12C C13A U28A U34A | 0.01
87 | A11U A26C A41U | 0.11
88 | A11U G17C G30C | 0.02
89 | A11U C15G G22C G44C | 0.02
90 | A11U U20G G21U C31G | 0.01
91 | A12C C15A U38C | 0.01
92 | A12C A25C U38A | 0.01
93 | A11U G29U C37G C45G | 0
94 | A11U G44A C45G | 0
95 | A12C C18A C42A | 0.02
96 | A11U G21C G33A | 0.02

Row | Variant | self-cleavage
97 | A11U G35U G44C | 0.01
98 | A11U A14C C18U | 0.02
99 | A11U C13G U32C | 0.01
100 | A11U A24U U38C | 0.1
101 | A11U C15A C18G | 0.04
102 | A12C A16G A24G | 0.01
103 | A11U C31U U43C | 0.06
104 | A12C A14C A24U A39C | 0.02
105 | A11U C13A C23G A39C G40C G44A | 0
106 | A11U U20A G21C | 0.09
107 | A11U C15A C18A G36U A39G A41U | 0.01
108 | A11U C13U G29C | 0.02
109 | A11U C13U G29U | 0.03
110 | A12C A14C G35U | 0.06
111 | A11U C18A G21C G22A C23G G30U C45G | 0.02
112 | A11U A41G C45A | 0.01
113 | A12C A14C U38C G40A | 0
114 | A11U C13U C18U C23U A24U | 0.02
115 | A11U A14C C15G G29A G40A | 0
116 | A11U C15A A39C | 0.01
117 | A12C C15G A16C U38A G40A | 0
118 | A11U A16C A24G | 0.03
119 | A11U A16C G19C | 0
120 | A12C G19A C31U | 0

Row | Variant | self-cleavage
121 | A12C A14U A25G G36A U43G | 0.03
122 | A12C A41C C45A | 0.01
123 | A12C C15G C18U | 0.03
124 | A12C C15A G29A | 0.03
125 | A12C C15U A26C | 0.04
126 | A12C A26C C45A | 0
127 | A11U C31A A41C | 0.01
128 | A11U G21C A26G U32A G44A | 0.01
129 | A11U G17A G30A U43G | 0
130 | A11U A25C U28C | 0.03
131 | A12C C18U G21U G33U U43A | 0.11
132 | A11U A16U A41U C42U C46A | 0.02
133 | A11U G21A U38A | 0.04
134 | A11U G30A G36C | 0.01
135 | A12C G17C G21A | 0
136 | A11U A14G G17U G29U | 0.01
137 | A11U G30A G36U A39U A41U | 0
138 | A11U C18G C23U G29A A39C | 0.05
139 | A11U A14C U34A | 0.01
140 | A12C C15G G22C | 0.01
141 | A11U G22U A25U | 0.15
142 | A12C G17C G36A A41C | 0.02
143 | A11U G27C C37A A41U | 0.02
144 | A11U U28C G29U | 0.1

Row | Variant | self-cleavage
145 | A11U U28C G29A | 0.1
146 | A11U A24C G36A | 0.01
147 | A12C C13A G33A G36U | 0.03
148 | A11U C13A G29C | 0.01
149 | A12C A16C C18U C45G | 0.01
150 | A12C C18U G21U G29A | 0.02
151 | A11U C13A C15A A25U G29C A39U C45G | 0
152 | A12C A25U A26U U28G | 0
153 | A12C C15A G29A C37A C46U | 0.01
154 | A12C A16G G17C C45G | 0.08
155 | A11U G27U G40C C45G | 0.02
156 | A12C G17U G35A | 0
157 | A12C A16G U20G G33U | 0.02
158 | A11U C18A A25C A39U | 0.04
159 | A11U G17U G35U C46U | 0.01
160 | A11U U28G G33C | 0.01
161 | A11U G17C U34A G35U C37A | 0
162 | A12C C31U C37G | 0.02
163 | A11U C13A C42A | 0
164 | A12C C23A C42G | 0
165 | A11U A14U G17A G36U | 0.02
166 | A12C G17C G22U G29C G35U | 0.02
167 | A12C G17U U28C G29A C31U C42U | 0.01
